The record followed here is the supplement of paper PMC10126150.

Values marked as one replicate rest on one cluster of the flow cell; about a third of the high ones do not repeat.
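Also: ATP exposure 15 min at 22 °C before imaging.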

This data set deals with ATP. The data set is described as follows: switch fluorescence ratio, 500 uM ATP over buffer (Cy3 cluster intensity, sum of 5 cycles each) (fold (ratio)); higher = stronger signal-on switching upon ATP binding; sequences stand for … in TCGTCGGCAGCGTCAGATGTGTATAAGAGACAGTTTTTTTTTTTTTTTTTTTTTTTTT…TC. The note with it: aptamer strand: ATP DNA aptamer (quencher-CACCTGGGGGAGTATTGCGGAGGAAGG + anchor), 100 nM annealed; ATP concentration: 500 uM; one replicate. The gist of the method:
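Switching-strand clusters labelled with Cy3 on a modified Illumina MiSeq flow-cell were annealed to 100 nM quencher-labelled ATP aptamer, imaged in selection buffer, and re-imaged after 15 min with 500 uM ATP at 22 °C. This was done over five cycles with NaOH stripping and re-annealing in between. The fluorescence ratio is summed target-cycle over summed buffer-cycle Cy3 intensity per cluster, averaged per switch-domain sequence, excluding clusters outside 100-1000 RFU.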
TCACGGAGTG: the switch fluorescence ratio was 1.01.
In the case of AGCACTTGGT, the switch fluorescence ratio turned out to be 1.04.
Take GACTCCCAAG: the switch fluorescence ratio turned out to be 1.11.
In the case of CATTTTTTAA, the switch fluorescence ratio is 1.01.
Consider ATGGTCTTCT, for which the switch fluorescence ratio is 1.
As to TTGAGGTCTA, the switch fluorescence ratio amounted to 0.983.
Take GGCAAAGGAT: the switch fluorescence ratio was 0.975.
For TTTATCCGGC the value was 1.03; for CCGTTGCCAT, 1.17; for CTGACTGAAG, 0.984.
The figure for CGTGTGTAG is 1.03.
As for TTATAGCGGT, the switch fluorescence ratio turned out to be 1.
Take TGCGGCTAGC: the switch fluorescence ratio was determined as 1.02.
As to TTTGCTCTTG, the switch fluorescence ratio was 1.02.
Turning to TACCCGCGTG, the switch fluorescence ratio came to 1.
Turning to GTCGGTAGAT, the switch fluorescence ratio stood at 0.975.
The figure for GTACTTACTC is 1.25; for ACGCTAGTCC it is 1.18.
Turning to TCGAAAAAAT, the switch fluorescence ratio is 1.25.
For TGATTTGGCG, the switch fluorescence ratio came to 1.06.
On to TCGAAACGT, for which the switch fluorescence ratio was found to be 1.1.
For ACGTCAAAAG, the switch fluorescence ratio worked out at 1.06.
For CGTTGCTAGG, the switch fluorescence ratio was 0.999.
The figure for GACCTAGTTA is 0.966; for CTCTTCCTGG it is 1.28.
For the sequence TGTTATGGGC, the switch fluorescence ratio is 1.03.
Regarding TATGGAGGCG, the switch fluorescence ratio is 1.03.
Turning to TAATTACACC, the switch fluorescence ratio was determined as 1.07.
As to TTCATCCATT, the switch fluorescence ratio is 1.05.
For TCGGTGCAAC the value was 1.1.
The figure for GTACTCCATC is 1.08; for GCCTCGGTCT it is 1.05.
On to ATCCCTAATG, for which the switch fluorescence ratio stood at 1.02.
For TGCGGTTGCT the value was 0.962; for TTCACGCCAG, 1.03; for AGGGATATAA, 1.04.
For AAGGCTCGT the value was 1.02; for AACAAACACT, 1.13.
As for CTAAGTGATG, the switch fluorescence ratio stood at 0.997.
For the sequence TCGACCCGGA, the switch fluorescence ratio turned out to be 0.989.
Turning to TCACCGGCGG, the switch fluorescence ratio came to 1.06.
Regarding ATTCTGTCCG, the switch fluorescence ratio came to 1.15.
With TTCAGATTCA, the switch fluorescence ratio is 0.949.
The figure for GGTCGGGATG is 0.971.
For the sequence TTGTGGAGAC, the switch fluorescence ratio worked out at 1.04.
For TGGAGACATT, the switch fluorescence ratio is 0.963.
CTCCGGCCGT: the switch fluorescence ratio stood at 1.21.
For AATTTATGAA the value was 1.04.
For the sequence CAAACATGA, the switch fluorescence ratio amounted to 0.993.
For GACAGAGAGG, the switch fluorescence ratio worked out at 1.
For the sequence TGCATTACGA, the switch fluorescence ratio came to 3.4.
Turning to ATATGGATCC, the switch fluorescence ratio worked out at 1.02.
Regarding AACCTCAGAA, the switch fluorescence ratio worked out at 1.03.
Take GTACTGAGCC: the switch fluorescence ratio was 1.05.
The figure for AAAGGTGCAG is 1.02; for AGGCCAGCTC it is 1.01.
For ACCACGGCTA the value was 1.03.
Take CTTCGGTTCA: the switch fluorescence ratio is 1.03.
The figure for CCTTATAGCA is 1.51; for AAATCTGATT it is 1.03; for CCCCTTGTCT it is 1.02.
As to TCGGCCAAGA, the switch fluorescence ratio is 1.06.
For TGGTTTAGGA, the switch fluorescence ratio is 1.01.
Turning to CAAGCGGCTA, the switch fluorescence ratio is 1.04.
Take GAGCGGCATG: the switch fluorescence ratio was 1.01.
As to CCATTTCGAG, the switch fluorescence ratio was 1.
Turning to CCCATATCAG, the switch fluorescence ratio is 0.982.
With TCATAAGGGT, the switch fluorescence ratio turned out to be 0.975.
As to CAAGAGATCA, the switch fluorescence ratio came to 1.03.
In the case of TCCTTTTAA, the switch fluorescence ratio stood at 0.981.
With GAGGGCGTAT, the switch fluorescence ratio is 1.01.
TCTTCACCGG: the switch fluorescence ratio worked out at 1.04.
As to GGCATAGTTG, the switch fluorescence ratio is 1.02.
GGATGTCTTC: the switch fluorescence ratio worked out at 0.985.
For TTAGAAATCA, the switch fluorescence ratio turned out to be 1.
On to TGGAAGAGCC, for which the switch fluorescence ratio came to 1.09.
For AAAGAGATAC, the switch fluorescence ratio was found to be 1.12.
Consider TTGTGAACTG, for which the switch fluorescence ratio worked out at 1.12.
As for TCTTGTTCAA, the switch fluorescence ratio came to 0.97.
